This passage reports binding signal results from publication PMC6212790.

The list shows a part of the results. At the low end of the ranking, values are background and their order means little.

The target in this assay is T1, GST-Rok-C97-191 (UniProt O34857).
T1 sequence: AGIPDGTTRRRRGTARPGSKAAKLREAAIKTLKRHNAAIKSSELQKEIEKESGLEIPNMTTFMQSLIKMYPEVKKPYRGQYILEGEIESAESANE
The assay can be described thus: protein binding microarray.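 Further: rank score from −0.5 (least bound) to 0.5 (best bound).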 The conditions noted are these: Rok is a gene silencer of Bacillus subtilis; high values mean tight binding; most listed sequences are background and not binding sites; double strand, one strand shown.
The sequence ATGAGCAC returned a binding signal of -0.1 E-score. With GCTTCCAA, the binding signal is -0.00693 E-score. AGTTTCTG yielded a binding signal of 0.0882 E-score. On to TAGGGACA, for which the binding signal is -0.111 E-score. Sequence CATATATG gave a binding signal of 0.306 E-score.

In turn, AAATACGC came in with a binding signal of 0.142 E-score.

For the sequence TGCGGAAA, the binding signal turned out to be 0.0934 E-score. As for GTAGATGA, the binding signal was 0.166 E-score.

Sequence ATGTACTG came in with a binding signal of 0.0512 E-score. The sequence AAGATCGT displayed a binding signal of 0.037 E-score. AGAACTAA: the binding signal stood at 0.259 E-score. Turning to GCTACTCC, the binding signal is -0.0352 E-score. As to CTCGTCTA, the binding signal is -0.0895 E-score. Turning to GTTCAGTA, the binding signal was found to be 0.213 E-score. To GTAGGAAC belongs 0.2 E-score; to CATACATG, 0.171 E-score. On to AGGACACC, for which the binding signal is -0.131 E-score.

Sequence TCCAACGA gave a binding signal of -0.196 E-score.

In the case of CATGGATA, the binding signal was 0.189 E-score. To GGTCCAAC belongs -0.24 E-score. As for CTGCCCTA, the binding signal was -0.098 E-score. The figure for AAGGGCGA is -0.167 E-score. To CAATCTCA belongs -0.00889 E-score; to CCCCAAGC, -0.171 E-score. To GGTCCCAC belongs -0.252 E-score; to CAGAACTA, 0.309 E-score. As for ACCCCTTC, the binding signal was -0.315 E-score.

Turning to CCCCTACA, the binding signal is -0.175 E-score. AACTACAA: the binding signal was 0.348 E-score. Take CCTCTCAA: the binding signal is -0.0855 E-score. For the sequence ACATAGAC, the binding signal came to 0.0775 E-score. Take CTCGGCAC: the binding signal is -0.153 E-score. GCGTCCCA came in with a binding signal of -0.181 E-score. TGGGTCAA showed a binding signal of -0.189 E-score. GTGAGAAA showed a binding signal of 0.0532 E-score.

In turn, GACGACTA came in with a binding signal of 0.146 E-score. To AACAAGAA belongs 0.00882 E-score. With AAAAGACA, the binding signal is -0.0221 E-score. The sequence GAACATCA showed a binding signal of 0.0213 E-score. CATGGCTA: the binding signal is -0.081 E-score.

In the case of CACTTCAC, the binding signal came to 0.0445 E-score. Turning to GTCGAGGA, the binding signal is -0.0836 E-score.

Sequence GGATAAAA displayed a binding signal of 0.168 E-score. In the case of CGATCCGA, the binding signal was -0.0349 E-score. As to CCTCACTC, the binding signal is -0.151 E-score. For GGCCCAAA, the binding signal was -0.227 E-score. Turning to CACAGTAC, the binding signal is -0.0303 E-score. The figure for CGGGGATA is -0.0134 E-score; for ATGAGGTC it is -0.207 E-score. To CATCCCAC belongs -0.272 E-score; to ACCGACAC, 0.0159 E-score; to CCATCCGA, -0.132 E-score.

AGTTAGAG gave a binding signal of 0.135 E-score. In turn, GGGTCCAC came in with a binding signal of -0.233 E-score. For AAGCCCGC, the binding signal is -0.237 E-score. The sequence GGGATCTA showed a binding signal of 0.28 E-score. As to CTAGAGAA, the binding signal stood at 0.31 E-score. The figure for TGCTGCCA is -0.222 E-score; for CCTGTCCC it is 0.0167 E-score; for AAGCGAAG it is -0.0349 E-score. In the case of GCGTGACA, the binding signal was -0.23 E-score. For the sequence AATGTACA, the binding signal is 0.34 E-score.

The sequence CGTCGCAC gave a binding signal of -0.148 E-score. Sequence ATACGCAA registered a binding signal of 0.228 E-score. For the sequence CTTCGACC, the binding signal is -0.246 E-score.

On to AAAATGAT, for which the binding signal is 0.0611 E-score. Turning to ATCATGAG, the binding signal is -0.0972 E-score. Regarding GGCTCGAA, the binding signal is -0.137 E-score.

As for GACACCAA, the binding signal was -0.0487 E-score.

CATCTGGC came in with a binding signal of -0.228 E-score. ACACTCAG yielded a binding signal of -0.053 E-score. AATGAGTG showed a binding signal of -0.13 E-score.

In turn, CACCGAAC displayed a binding signal of -0.185 E-score.

In turn, CGTGACGC gave a binding signal of 0.0151 E-score.

Sequence AGGGTATC displayed a binding signal of -0.118 E-score. Sequence ATGAGCGG returned a binding signal of -0.147 E-score. Consider CCTCCTAC, for which the binding signal was -0.0349 E-score. Sequence CTATCACC registered a binding signal of 0.0898 E-score. Sequence CCTATACC showed a binding signal of 0.137 E-score. Turning to GAAGAAGC, the binding signal was -0.243 E-score. In the case of ACTGTCGA, the binding signal is -0.0442 E-score.

GGCCTAAC came in with a binding signal of -0.273 E-score. Turning to CATGGGGG, the binding signal was -0.272 E-score. For the sequence AAGGCTCA, the binding signal is -0.276 E-score.

In turn, CACCAGAG displayed a binding signal of -0.11 E-score.

As to ACGGGTCT, the binding signal was -0.0539 E-score.

With AACCTAGA, the binding signal stood at 0.13 E-score. As to ACAATGCT, the binding signal is -0.0792 E-score. In turn, ATTTAGGC returned a binding signal of 0.00897 E-score. In the case of AGTTGAAC, the binding signal was -0.0218 E-score.

Sequence GCACTCGC yielded a binding signal of -0.271 E-score.

Turning to CCTTAATC, the binding signal was -0.172 E-score. Turning to CGAAATGA, the binding signal was -0.0888 E-score. ATAACGTG registered a binding signal of 0.146 E-score. ATTATATG yielded a binding signal of 0.223 E-score. In the case of AACGAACA, the binding signal was determined as 0.0175 E-score. To ATACCAAA belongs 0.0654 E-score; to TACGTGCA, 0.075 E-score. AATGAATG displayed a binding signal of -0.0115 E-score. The sequence CTTCGCCA gave a binding signal of 0.00426 E-score. To TGCTAACA belongs 0.0788 E-score; to ATGTGCTG, -0.0931 E-score; to CCCCGTGA, -0.191 E-score. To GGGACCAC belongs -0.385 E-score; to AGTTGTTG, 0.11 E-score. CGGGCGAA displayed a binding signal of -0.24 E-score. In turn, CACTGCGC returned a binding signal of -0.194 E-score. Take GGAAGGCA: the binding signal is -0.25 E-score. For the sequence GGAATGTA, the binding signal was 0.168 E-score. CATCGGCG displayed a binding signal of 0.0323 E-score. AAATTAGG returned a binding signal of 0.195 E-score. As to ATCGTACC, the binding signal was -0.134 E-score. Turning to AACGTAAC, the binding signal was found to be 0.0345 E-score. To AAGAGTGA belongs 0.0515 E-score; to CACGAGGG, -0.351 E-score; to ATTTTGTG, 0.142 E-score. To GATCGGGA belongs -0.0531 E-score; to CCGGGCCC, -0.431 E-score.

On to CAGGAACC, for which the binding signal was -0.163 E-score. The figure for ATCAGGTA is 0.0822 E-score; for GGTCGGCA it is -0.251 E-score. Sequence AATTCCCT yielded a binding signal of -0.0518 E-score. In the case of AACGTGGG, the binding signal is -0.144 E-score.

Turning to CAACAGTA, the binding signal was 0.315 E-score. ACATCTCT showed a binding signal of -0.0589 E-score.

The sequence TCCTGCCA registered a binding signal of 0.0796 E-score.

Turning to ACTGCCTA, the binding signal was -0.0171 E-score.

With CTGATTCA, the binding signal was -0.0414 E-score. Sequence CGCGGGCC returned a binding signal of -0.276 E-score. ACCGTGCT registered a binding signal of 0.0327 E-score. Take AGGCAGAA: the binding signal was -0.163 E-score. AATCCTAT yielded a binding signal of 0.273 E-score. In turn, GAACCACA had a binding signal of -0.133 E-score. Turning to ACAGAGCC, the binding signal is -0.173 E-score. On to CACCGCAA, for which the binding signal was -0.114 E-score.

Regarding GCGCGGCC, the binding signal is -0.402 E-score.

For the sequence GAGGTGTA, the binding signal amounted to 0.0774 E-score. To GGTGTGAC belongs -0.139 E-score; to GTTTTCCA, -0.181 E-score. For the sequence AGGCAACG, the binding signal is -0.0481 E-score.

CCGCAAGC yielded a binding signal of -0.233 E-score. Consider CCATCTGA, for which the binding signal was 0.0365 E-score.

TAGGCGAA registered a binding signal of 0.0738 E-score. Turning to CCCACACA, the binding signal was -0.0699 E-score. ACGTATGA showed a binding signal of 0.00348 E-score. On to AATGGAGA, for which the binding signal turned out to be 0.0615 E-score.

On to CAAAGATC, for which the binding signal was -0.0941 E-score.

Take ACCTCGCG: the binding signal was -0.201 E-score. The figure for CACCCTTC is -0.147 E-score. TAAACCCA gave a binding signal of -0.011 E-score. To GTCCTTCA belongs -0.00306 E-score; to ATAAGCAA, 0.144 E-score.

CTAAGGAA showed a binding signal of -0.0634 E-score. Take AAGCCGTG: the binding signal was -0.207 E-score.

CCTAGGAG: the binding signal was -0.0449 E-score.

As to AGAGGGCC, the binding signal is -0.23 E-score. CAATGAAA registered a binding signal of -0.098 E-score. The sequence AATACTTC returned a binding signal of 0.214 E-score. For the sequence GCTGGGAA, the binding signal is -0.128 E-score. As for CTAATCGC, the binding signal was found to be 0.142 E-score. As to GCTCAGCC, the binding signal was -0.0561 E-score. To AATATGAC belongs 0.16 E-score; to AAAAAAAG, 0.0553 E-score; to CTCTGGAC, -0.117 E-score. The sequence ACGTACTA gave a binding signal of 0.186 E-score. CCATTCAA had a binding signal of -0.121 E-score. Take ACAATACG: the binding signal was found to be 0.0553 E-score.

With ATCATTCG, the binding signal is 0.0549 E-score. In the case of CATCGATA, the binding signal stood at 0.259 E-score. To GACGCGCC belongs -0.319 E-score; to GGACCACC, -0.364 E-score. ACGAGGCT registered a binding signal of -0.137 E-score.
